In the supplement of paper PMC11417369:
± gives the standard deviation of the averaged measurements. The list shows a part of the results.

system: PfAP2-I AP2 domain 3 (GST-tagged); experiment: gcPBM binding intensity (ln(normalized median fluorescence intensity)); higher = stronger DNA binding
Method in brief: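 In this array assay, P. falciparum DNA-binding domains with a GST tag, expressed in E. coli, were applied for 1 h to primer-extended double-stranded 36-bp intergenic genomic probes and negative controls on an Agilent 4 × 180k array. Bound protein was visualised with Alexa488 anti-GST antibody at 488 nm. Binding intensity is the highest Masliner-normalised natural-log median intensity across replicate spots of either probe orientation.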

Row | Sequence | gcPBM binding intensity (ln)
1 | TATTAAATATTCATATGTACATATAGTTTATAAATT [XGTACX_site7455] | 7.88 ± 0.29
2 | ATATATGTATGTTAGACACACATATTATAATATGTT [CACACA_site116] | 7.61 ± 0.57
3 | AAAACGGATTCTTTATAAATAAATAAATAAATATAA [XGTACX_negctrl_site157] | 7.52 ± 0.42
4 | AATACATACACAAATACACACACAAATACATACACA [CACACA_site8134] | 7.96 ± 0.3
5 | GGACTTAAATAAAATGGTACAGAATTTATATATATT [XGTACX_site8214] | 7.63 ± 0.51
6 | TAATGGAATACATATAGTACATAATATTACATACAT [XGTACX_site5737] | 7.65 ± 0.48
7 | TTTTAAAAATTAAAAAAATTAAATGTAAAAAAATGA [CACACA_negctrl_site861] | 7.55 ± 0.69
8 | ATATATGTATATGTGTGTACATATATGTTTATTATT [XGTACX_site6043] | 7.78 ± 0.42
9 | TTTTTTTTTTTTTATTGTACTAGTAGATATATATAC [XGTACX_site3463] | 8.08 ± 0.71
10 | CCAATATATACATATATATAGTTATATATATTTCCT [TGCATGCA_negctrl_site38] | 7.42 ± 0.36
11 | GTGTCAAATTTTATAACACACAAAAGATTATATAAG [CACACA_site4086] | 7.76 ± 0.48
12 | TCCTCGCGTAATACTTTTCAAATAAAAAAAATAAAA [TGCATGCA_negctrl_site403] | 7.82 ± 0.22
13 | ATTAAAAATTAATATAAACACACAAAAATTAATAAA [CACACA_site8019] | 7.64 ± 0.68
14 | AAACATACTTGATGCAGTACACATTATAAGCACATA [XGTACX_site3359] | 9.19 ± 0.2
15 | CATATGTATATGACTACACACAAGGGTGTACAGATA [CACACA_site4776] | 8.05 ± 0.26
16 | TATTATTCTGTATTTGCATGTGATCATATATATGTA [TGCATGCA_site1053] | 7.76 ± 0.6
17 | TATATAACATAATATACACACATTATGTGCGTAATT [CACACA_site4073] | 8.91 ± 0.23
18 | GTATATCATTTTGGGGTGCTTAAAAATAATGAATAC | 10.4 ± 0.46
19 | TTTTTTTTTTTTTATTGTACAAAGGTATAAAATAAT [XGTACX_site2396] | 8.07 ± 0.45
20 | CATACATACAGACACACACACATATATATATATATA [CACACA_site2920] | 9.41 ± 0.54
21 | AACATAAAAATGAACATACACACATATATATATATA [CACACA_site2497] | 9.35 ± 0.32
22 | ATAAAAATACAGTTAACACACATGTGGATATATATG [CACACA_site3771] | 8.13 ± 0.46

Row | Sequence | gcPBM binding intensity (ln)
23 | AAACAAAAAAGTAAGAAAAGGGATGATTGGATCCAA [CACACA_negctrl_site1230] | 7.35 ± 0.78
24 | AGATATTATAATTAATGTACAAAAAGAAAAAATAGA [XGTACX_site8964] | 7.86 ± 0.64
25 | GTATTATCTTTTAATAGTACATATTTTTTTGAAACA [XGTACX_site4050] | 7.61 ± 0.54
26 | CATATAATATTTGAAACTATATATAAATATAAGGTA [TGCATGCA_negctrl_site19] | 7.32 ± 0.39
27 | AATATATTTTTATATTGTACAAAAGAAAAAAAATAT [XGTACX_site1689] | 8.05 ± 0.48
28 | ATTTATTCATAGACAACAAGAAAAAAAAAAAAAATT [CACACA_negctrl_site1168] | 7.54 ± 0.57
29 | AGTTTTCCATGTTAATGTACTTAACAATACCATAAT [XGTACX_site209] | 8.19 ± 0.6
30 | TATATCCATATTGTATGTACACATATAATACCAATG [XGTACX_site7230] | 7.94 ± 0.35
31 | ATATAATGATAATATTGTACATGTTATATTTCAATA [XGTACX_site8645] | 7.66 ± 0.34
32 | ATATATTTAATATTCACACATAATTATTTTTACTCT [CACACA_site5438] | 7.87 ± 0.65
33 | TTGTAATATCTTGTCACACATATATATATATATATA [CACACA_site4937] | 9.38 ± 0.35
34 | TATAGATAAGAATATGCACACATTTTATTTTTTTTT [CACACA_site1982] | 8.6 ± 0.085
35 | TTTTTAATTTATTAAGAAGTAAAGAATAACTCTTTT [TGCATGCA_negctrl_site101] | 7.17 ± 0.35
36 | AAACATTAAAATAACTCACACATTTTTCTAGTCTTC [CACACA_site4612] | 7.53 ± 0.67
37 | TCAAATTACTAAAATACACACATATTATAGATATAT [CACACA_site7233] | 7.46 ± 0.53
38 | TGTATATATAATAAAACACACATTTTTAATGTGCTC [CACACA_site1437] | 7.36 ± 0.46
39 | GTTTTATAAAAAGGCGCACACATATACATAAATATA [CACACA_site1864] | 8.47 ± 0.37
40 | GATAAAGTACTTTATACACACAAATATTTATATATA [CACACA_site3974] | 7.86 ± 0.43
41 | AAAAAGAAAATATATACACACCAAAAAAAAAAAAAA [CACACA_site5698] | 7.84 ± 0.79
42 | TAAATACAAAAATGCACACGAAAAGTAATATATATA [CACACA_site6151] | 8.76 ± 0.71
43 | TAATATGACATAAGGGGTACTATATATATATATATT [XGTACX_site386] | 7.88 ± 0.52
44 | AAACATTTACTATATTGTACTTAAGATCTTATCGTA [XGTACX_site3919] | 7.62 ± 0.57

Row | Sequence | gcPBM binding intensity (ln)
45 | TATTTTAACATGTTTTCAAAAATAAAACATATAAAT [CACACA_negctrl_site1598] | 7.4 ± 0.35
46 | GAACTTTACAACCCAACACACAAAAAAGAAAAGAAA [CACACA_site1717] | 7.87 ± 0.46
47 | ATATGTTCATTTAAAAGTACTTAATATAACATTTTT [XGTACX_site3332] | 7.6 ± 0.44
48 | AATAGGAAAAGAAAAGCACACACATAAATAAATATA [CACACA_site8062] | 8.14 ± 0.41
49 | ATTGGTGTATGTTTATGTACTTATCACAATTATGAA [XGTACX_site7055] | 7.96 ± 0.37
50 | TATGCTTTGATGAAGACACACATATAGAAGCGTATT [CACACA_site1925] | 7.64 ± 0.59
51 | CGCCCACAGATATATACACACATATATAAATAAATA [CACACA_site6877] | 7.83 ± 0.49
52 | TACTTTTATAAAAATTGTACAAAAAAAAAAAAAAAA [XGTACX_site2266] | 8.15 ± 0.69
53 | TATGTTATAAAATATATATTATAATATGTATATATA [XGTACX_negctrl_site233] | 7.68 ± 0.16
54 | AAAACTATTTCTTTCAGTACATATTTGGACTTATAT [XGTACX_site4977] | 7.59 ± 0.42
55 | ATAATAAGCAGACACACACACACAAAAAAAAAAAAA [CACACA_site6477] | 8.06 ± 0.52
56 | ATATAAATTTAATACACACCCAAAAAAAAAAAAAAA [CACACA_site3750] | 8.23 ± 0.46
57 | TAAATAAATACATACACACACATACAGATATATATA [CACACA_site5690] | 7.83 ± 0.7
58 | ATTAAAACACAATATTCACACATGTATATTATATAT [CACACA_site5191] | 7.72 ± 0.51
59 | TTAACATACACTCTAGTGCATATATATAACAAAATA [GTGCAC_site9724] | 10 ± 0.17
60 | AATTTAAATCTTCAAAGTACTAAAAAAAAAAATAAT [XGTACX_site8566] | 7.88 ± 0.57
61 | AAACGATTAATGTGTACACACATAGTTATAAACATA [CACACA_site7073] | 7.95 ± 0.23
62 | TTATAAAATATTTTTTGTACACATAATAGTAAGACT [XGTACX_site933] | 8.03 ± 0.54
63 | CACCCACACCAACACACACACATATATAATATATAT [CACACA_site595] | 8.27 ± 0.44
64 | CCATAATATTATAGACGTACGAATATATATAAAAGA [XGTACX_site7295] | 8.05 ± 0.44
65 | GATTATTTTATAAGTACACACATTTATCTATAATAA [CACACA_site7256] | 8.17 ± 0.21
66 | AATACATGCTTATTTTAACACACAAATGGTAGTAAT [CACACA_site8154] | 7.84 ± 0.63

Row | Sequence | gcPBM binding intensity (ln)
67 | CTTATATTTAGACACACACACAATAAAATGAAAAAA [CACACA_site1031] | 8.1 ± 0.49
68 | AACCATGTTAACAACGCATGTATATCTATGGGTTTA [TGCATGCA_site419] | 7.57 ± 0.83
69 | GATTAATACACATTCTTCCGACATAATAAGAAAAAG [GTGCAC_negctrl_site7] | 8.04 ± 0.38
70 | TTTTTTAAATGTCATTGTACATAATTCAATATATAA [XGTACX_site5] | 7.92 ± 0.13
71 | TGACTTTTTTTATGTTGTACTTATTATAAAAAAAAT [XGTACX_site7736] | 8.05 ± 0.11
72 | AGCTAATATATCTTATATTCATATAAAAAAATATAT [CACACA_negctrl_site1786] | 7.42 ± 0.49
73 | ATTATAATAATGTGATGTACATTAATTGTCTTCCTA [XGTACX_site5404] | 7.72 ± 0.52
74 | AATACATCATTAAAATGTACATATATATATACATTA [XGTACX_site132] | 7.64 ± 0.44
75 | GAAATAAGGGTTATTTCACACATTGCATGTATTTTC [CACACA_site5752] | 7.59 ± 0.91
76 | ATATATATTAATTTTGTGCACAAATGGAAATGTTTG [GTGCAC_site9971] | 11 ± 0.2
77 | TTTTTTTTTTTTTTATGTACTAAAAAATGAAAAATA [XGTACX_site6812] | 7.98 ± 0.47
78 | AAATACTTAACATTGGTGCATATTTGTAAAATTATT [GTGCAC_site9515] | 10.3 ± 0.55
79 | TTATTTATTTATTGGGTGCACTTGATTTAAATATGC | 10.7 ± 0.64
80 | AAAAAAAAAAAAAAAACACACACATATATATAATAT [CACACA_site9038] | 8.62 ± 0.51
81 | TTTTGGCTTCTAATATTATACAAAATGGTAAGGAAA [TGCATGCA_negctrl_site169] | 7.94 ± 0.4
82 | ATGCAATAATAATATTGTACGCATATATTTTTTACT [XGTACX_site3384] | 8.04 ± 0.11
83 | AGAATACAAAATTGCACACATATTGTGAAAATGTTA [CACACA_site4005] | 8.42 ± 0.17
84 | TATTCCTATATAAAGACACACATATGTAACTACGAT [CACACA_site4139] | 7.68 ± 0.59
85 | TGTGTTATATATAAAGAAAAAAAAAAAAAATATATA [CACACA_negctrl_site567] | 7.62 ± 0.64
86 | AAAAATTTAATTATTTGTACATAAAATACATTTCTG [XGTACX_site791] | 7.46 ± 0.42
87 | TGTACAAATTATACTTCGAACGAAGGGCATACATAT [XGTACX_negctrl_site37] | 8.1 ± 0.54
88 | TATTTGTGTATTTTTACACACATTAATATATTTATA [CACACA_site7562] | 7.44 ± 0.42
